# Data as given in PubChem BioAssay AID1347073 (National Center for Advancing Translational Sciences (NCATS), 2019).
# The whole screen tested about 45,000 compounds, of which about 200 (0.44%) were called active. Another 7% or so got no clear call; they are omitted. Calls come from the whole dose curve; as a rule, active = well fitted activation curve with a large enough effect; inconclusive = small, poorly fitted or top-dose-only effect; inactive = no such curve, though single readings can be large or run the other way. The list shows a part of the results.
# Test: qHTS of TDP-43 Inhibitors: NCGC Sytravon Library Screen; note: 0% is about no effect; nearly all actives have a fitted effect of over 55% in size
# Details: yeast TDP-43 toxicity rescue, BacTiter-Glo growth, 24 h; series mostly up to 46.1 µM; growth rescue (activation): at the top concentration
# How it was run: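 TDP-43-expressing yeast, pregrown in raffinose, seeded at OD600 0.02 in galactose medium with compound for 24 hr at 30 deg C. Growth read by BacTiter-Glo luminescence, so rescue of toxicity appears as activation.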
row,Structure (SMILES),growth rescue (activation)
1,O=C(OCN1C(=O)c2ccccc2C1=O)c1cccnc1SC(F)F,inactive: 24.3%
2,COc1cc(C)c(Br)cc1S(=O)(=O)NCCN1CCOCC1,inactive: 3.1%
3,Fc1ccccc1CSc1ncnc2sc3c(c12)CCCC3,inactive: 9.6%
4,COc1ccc(-c2[nH]nc3nc(-c4cc(OC)c(OC)c(OC)c4)cc(C(=O)O)c23)cc1,inactive: 12.2%
5,O=C1C(Cc2ccc(F)cc2)SC(=Nc2ccccc2)N1c1ccccc1 (stereo unspecified),inactive: 2.28%
6,O=c1c2ccccc2nc(CSc2nnnn2-c2ccccc2)n1-c1ccccc1,inactive: 15.1%
7,COc1ccc(Cl)cc1-n1c(C)ccc1C,inactive: -1.21%
8,CC1NC(=S)N(Cc2ccccc2)C1=O (stereo unspecified),inactive: -7.19%
9,CCc1nc2c(OCc3ccc(C(F)(F)F)cc3)cccn2c1N(C)C(=O)C1CC1,inactive: 3.27%
10,COc1cc(/C=C(\C#N)C(=O)NCC2CCCO2)ccc1OCC(=O)O (stereo unspecified),inactive: -17.7%
11,C#CCN1C(=O)C(O)(CC(=O)/C=C/C=C/c2ccccc2)c2ccccc21 (stereo unspecified),inactive: 11.9%
12,CCN=C1SC(CC(=O)NC(C)c2ccccc2)C(=O)N1CC (stereo unspecified),inactive: 6.71%
13,CCOc1ccc(/C=C/C(=O)Nc2ccccc2C(F)(F)F)cc1,inactive: 25%
14,Cc1cccn2c(=O)c(C=O)c(Nc3ccccc3)nc12,inactive: -5.21%
15,Cc1ccc(CNC(=O)c2cccnc2Cl)cc1,inactive: 8.36%
16,COC(=O)C(C)Oc1ccc(=O)[nH]n1 (stereo unspecified),inactive: 8.95%
17,COc1cccc(C(C(=O)NC(C)(C)C)N(Cc2ccco2)C(=O)CCC(=O)Nc2cc(C)on2)c1OC (stereo unspecified),inactive: -19.9%
18,COc1cc(-c2nc3ncccn3c2Nc2ccc(C)cc2C)ccc1O,inactive: 10.5%
19,Cc1cc(=O)oc2cc(NC(=O)c3cccc(F)c3)ccc12,inactive: 0.997%
20,COc1ccccc1C(=O)N1CCN(Cc2nc(CC3CC3)no2)CC1,inactive: -1.05%
21,NC(Cc1ccc(C(F)(F)F)cc1)c1csc(Nc2ccccn2)n1 (stereo unspecified),inactive: 17.2%
22,CC1(CC(=O)N/N=C/c2ccc(-c3ccc(Cl)cc3)o2)OCCO1,inactive: 13.6%
23,CCCNC(=O)COC(=O)/C=C/c1cccc(F)c1,inactive: 11.3%

row,Structure (SMILES),growth rescue (activation)
1,COCCN(C(=S)Nc1ccc(OC)cc1)C1CCN(C(C)=O)CC1,inactive: 28.6%
2,Cc1noc(C)c1-c1ccc(C(=O)NCCC(F)(F)F)c2occc12,inactive: 17.9%
3,CC(Sc1nncn1C)C(=O)NCCC1=CCCCC1 (stereo unspecified),inactive: 0.269%
4,Cc1nc(SCC(=O)Nc2ccccn2)n[nH]1,inactive: 16.5%
5,O=S(=O)(c1cccc(-c2nnc3n2CCCCC3)c1)N1CCOCC1,inactive: 9.19%
6,COc1cc(CNC(=O)c2cc(-c3ccc(F)cc3OC)n[nH]2)cc(OC)c1,inactive: 17.5%
7,O=C(Cc1n[nH]c(=O)c2ccccc12)N/N=C/c1cc2c(cc1Cl)OCO2,inactive: 2.79%
8,O=C(Nc1ccc(NC(=O)N2CCN(c3ccccc3O)CC2)cc1)N1CCN(c2ccccc2O)CC1,inactive: -11.9%
9,O=C(NC(c1ccccc1)c1ccc2ccccc2n1)C1CCN(Cc2ccc(Cl)c(Cl)c2)CC1 (stereo unspecified),inactive: -0.162%
10,O=C(CN1CCCC1)Nc1ccc([N+](=O)[O-])cc1,inactive: 9.94%
11,Cc1cc(NCCCO)n2c(nc3ccccc32)c1C#N,inactive: 24.7%
12,CCc1ccc(NC(=S)N2CCC(NC(=O)c3ccccc3)CC2)cc1,inactive: -1.59%
13,Cc1ccc2oc(C(=O)NCc3ccccc3)cc(=O)c2c1,inactive: 13.3%
14,Cn1c(=O)c2ccccc2n(CC(=O)NC2CCCC2)c1=O,inactive: -20%
15,CCN(CC)CCNS(=O)(=O)c1ccc(C(=O)NN)cc1,inactive: 22%
16,Cc1cc(Cl)ccc1NC(=S)N1CCN(C(=O)C2CCCO2)CC1 (stereo unspecified),inactive: 0.503%
17,COc1cc(NC(=O)C2CCC(=O)N2S(=O)(=O)c2ccc(C)cc2)cc(OC)c1 (stereo unspecified),inactive: 0.944%
18,CCc1nc2ccc(C(=O)NCc3ccccc3OC)cn2c1N(C)Cc1ccc(N(C)C)cc1,inactive: -4.62%
19,COc1cc(NC(=O)COC(=O)c2ccc3ccccc3n2)cc(OC)c1,inactive: 14.1%
20,CCOC(=O)NC(=O)CSc1nnc(SCCC(=O)O)s1,inactive: -4.75%
21,Cc1ccc(/C(O)=C2/C(=O)C(=O)N(Cc3cccnc3)C2c2ccccn2)cc1 (stereo unspecified),inactive: 27.9%
22,O=c1c2oc3ccccc3c2ncn1Cc1ccc(F)cc1,inactive: 19.1%
23,COc1cc(CNCCc2ccccc2)cc(Br)c1OCC(=O)Nc1ccccc1C,inactive: 0.335%

row,Structure (SMILES),growth rescue (activation)
1,COc1cccc(NCc2cc(=O)oc3cc(C)c(O)cc23)c1,inactive: -7.61%
2,COc1ccc(-c2nc(NC(=O)c3c(C)noc3C)sc2C)cc1,inactive: 11.3%
3,COc1cc(C2NC(=O)NC(C)=C2C(C)=O)ccc1O (stereo unspecified),inactive: -4.41%
4,Cc1cc2nc3c(c(=O)n2[nH]1)CCCC3,inactive: 8.75%
5,O=C(N/N=C/c1cc(Br)cc(Br)c1O)c1ccncc1,inactive: 24.3%
6,COc1cccc(CN2CCN(Cc3ccon3)CC2CCO)c1 (stereo unspecified),inactive: -14.6%
7,CN(C(=O)c1ccco1)c1nnc(-c2ccc(F)cc2)s1,inactive: -8.33%
8,COc1cc(NC(=O)c2cccc3c(-c4cccnc4)coc23)cc(OC)c1OC,inactive: 6.44%
9,CCOC(=O)c1cc(NC(=O)N(C(C)C)C2CCCCC2)c(C)nc1C,inactive: -19.8%
10,COC(=O)c1sc(NC(=O)CSc2nc3cccnc3n2C)nc1C,inactive: 4.48%
11,CCOP(=O)(OCC)c1cccc(P(=O)(c2ccccc2)c2ccccc2)c1O,inactive: 9.9%
12,CCOc1ccc(N2CC(C(=O)NCCN3C(=O)S/C(=C\c4cccnc4)C3=O)CC2=O)cc1 (stereo unspecified),inactive: 5.43%
13,CC(Cc1cccs1)NC(=O)Nc1ccc(F)cc1 (stereo unspecified),inactive: 4.91%
14,O=C(O)c1ccc(/C=N/NC(=O)c2ccc(F)cc2)cc1,inactive: -1.27%
15,CN(C)C(CNc1ccc(S(C)(=O)=O)cc1[N+](=O)[O-])c1ccccc1 (stereo unspecified),inactive: -16%
16,COc1ccc(-c2nn(CCC#N)cc2C(=O)Nc2cccc(C(=O)O)c2)cc1[N+](=O)[O-],inactive: -3.54%
17,O=S(=O)(NCC1NCCc2ccccc21)c1ccccc1 (stereo unspecified),inactive: -0.268%
18,CC(C)Oc1cccc(C(=O)C2CCCN(C(=O)c3ccoc3)C2)c1 (stereo unspecified),inactive: 21.3%
19,Cc1cc(C)cc(NC(N)=S)c1,inactive: 19.4%
20,Cc1ccc(/C=N/NC(=O)CSc2nc3ccccc3[nH]2)o1,inactive: -4.42%
21,CCCCn1c(SCC(=O)Nc2cc(C)on2)nnc1-c1ccncc1,inactive: -1.45%
22,O=C(NCc1ccco1)C1CCN(C(=O)c2ccc(Cl)cc2Cl)CC1,inactive: 10.3%
23,O=C(/C=C/c1cccc([N+](=O)[O-])c1)NCCc1ccc(F)cc1,inactive: -21.6%

row,Structure (SMILES),growth rescue (activation)
1,Cc1ccccc1N1C(=O)CC2(CCCC2)CC1=O,inactive: -4.31%
2,O=C(NC1CC1)C1CCN(C(=O)c2ccc(Cl)cc2Cl)CC1,inactive: 8.21%
3,O=C(CSc1ncn[nH]1)Nc1ccc([N+](=O)[O-])cc1Br,inactive: -23.7%
4,CCOc1ccc(N(CC(=O)N2CCCC2)S(=O)(=O)c2ccc(Cl)cc2)cc1,inactive: -15.7%
5,CCOc1ccc(S(=O)(=O)N2CCC(C(=O)NC3CC3)CC2)cc1Cl,inactive: -4.84%
6,O=C1/C(=C\c2ccsc2)NC(=S)N1c1ccccc1,inactive: 1.9%
7,CC(NS(=O)(=O)c1ccc(OCC(=O)NCc2ccccn2)cc1)c1ccccc1 (stereo unspecified),inactive: -1.65%
8,COc1ccccc1NS(=O)(=O)c1ccc(/C=C/C(=O)O)cc1,inactive: 2.01%
9,c1ccc(Cn2c(-c3ccccc3)c[n+]3c2SCCC3)cc1,inactive: 1.07%
10,O=C(CCn1c(=O)oc2ccccc21)Nc1ccc(C(=O)O)cc1,inactive: -12.2%
11,N#CCN(CC#N)C(=O)C1c2ccccc2Oc2ccccc21,inactive: 5.92%
12,Cc1ccc(C(=O)O)cc1NC(=O)CSc1ncnc2sc3c(c12)CCC3,inactive: 10.4%
13,CCCS(=O)(=O)N1CCCC(C(=O)NCCc2ccccc2)C1 (stereo unspecified),inactive: 10.2%
14,O=C(CN(c1cccc(C(F)(F)F)c1)S(=O)(=O)c1ccc(Cl)c([N+](=O)[O-])c1)NCc1ccc(F)cc1,inactive: 14.7%
15,C=CCNc1nc(=S)[nH]c2cc(OC)c(OC)cc12,inactive: -7.13%
16,COc1ccccc1NC(=O)c1ccc(NC(=O)CN2CCCCC2)cc1,inactive: -12%
17,CN(C)CCNC(=O)c1cccc(-c2cccc3nncn23)c1,inactive: -18.5%
18,Cc1cc(C)nc(NS(=O)(=O)c2ccc(NC(=O)CSc3nc4ccccc4[nH]3)cc2)n1,inactive: 9.56%
19,COc1ccc(N2CCN(C3CCCN(C(=O)c4cccc(C)n4)C3)CC2)cc1 (stereo unspecified),inactive: -3.17%
20,COc1ccc(C(C)NC(=O)Cc2ccc(Br)cc2)cc1 (stereo unspecified),inactive: 11%
21,O=C(Cc1cccs1)N1CCN(c2ccccn2)CC1,inactive: -1.44%
22,O=C(Cc1c(F)cccc1Cl)OCN1C(=O)c2ccccc2C1=O,inactive: 17.1%
23,O=C(O)CNc1nc(-c2ccccc2)c2cc([N+](=O)[O-])ccc2n1,inactive: 9.84%

row,Structure (SMILES),growth rescue (activation)
1,CCc1nc(Nc2ccc(O)cc2)c2oc3ccccc3c2n1,inactive: 18.2%
2,CC(C)=CCN1CCN(Cc2cc(CC(C)C)n[nH]2)CC1CCO (stereo unspecified),inactive: -30.8%
3,COc1cc(OC)c(NC(=O)CC(C)=O)cc1Cl,inactive: 27.8%
4,COc1cccc(C(=O)NNC(=O)C(=O)N2CCCCC2)c1,inactive: -1.27%
5,O=C(CNC(=O)c1ccc(Cl)cc1Cl)OCc1nc2ccccc2s1,inactive: 5.65%
6,NC(=O)CCc1nc2cc(C(F)(F)F)ccc2n(Cc2ccccc2)c1=O,inactive: 9.73%
7,Cc1ccccc1/C=C\c1nc2ccccc2c(=O)n1Cc1ccccc1,inactive: 10.4%
8,CC(=O)c1ccc(NC(=O)C2CCCN(S(=O)(=O)c3ccc(-n4cnnn4)cc3)C2)cc1 (stereo unspecified),inactive: 15.6%
9,O=C(NNC(=O)C1[C@H]2CCCC[C@@H]12)Nc1cccc2ccccc12 (stereo partly specified),inactive: -7.97%
10,COc1cccc(N2CCN(C3OC(=O)c4ccccc43)CC2)c1 (stereo unspecified),inactive: 12.6%
11,O=C(C1CCCN(S(=O)(=O)c2cccc3nsnc23)C1)N1CCc2ccccc2C1 (stereo unspecified),inactive: 37.9%
12,COc1ccc(CNC(=O)CSc2cc(=O)n(C)c3ccccc23)cc1,inactive: 5.28%
13,COc1ccccc1NC(CC(=O)c1ccccc1)C(=O)OCC(=O)c1ccc(F)cc1 (stereo unspecified),inactive: 8.41%
14,O=C(NC1CCCCC1)C1CC(=O)N(c2ccccc2)C1 (stereo unspecified),inactive: -15.8%
15,Cc1cc(C)c(S(=O)(=O)CCC(C)C)c(=O)[nH]1,inactive: 6.45%
16,Cc1sc2c(c1C)CN(CCN1CCOCC1)CN2C(=O)c1ccccc1,inactive: -2.04%
17,CCOc1cc(CNCc2cccs2)ccc1OCC(=O)NC(C)(C)C,inactive: 14.7%
18,CCc1ccc(NC(=O)CC2C(=O)N(c3ccc(C)cc3)C(=O)N2CCc2ccncc2)cc1 (stereo unspecified),inactive: -3.6%
19,CC(OC(=O)CC(NC(=O)c1ccccc1Cl)c1ccccc1)C(=O)Nc1cccc(Cl)c1Cl (stereo unspecified),inactive: 15.4%
